According to publication PMC4336329 (PLoS ONE, 2015):
The campaign covered roughly 310,000 compounds. About 14,000 (4.5%) showed an effect of 50% or more. The effect is printed as a negative number. The list shows a part of the results.

The compounds below were run against human ether-à-go-go-related gene (hERG) potassium channel (human, UniProt Q12809) (assay: primary screen, population patch clamp on CHO cells stably expressing hERG).
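Also: peak tail current of the secondary pulse compared with the same well before compound.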

Chain of human ether-à-go-go-related gene (hERG) potassium channel (Q12809 whole entry, looked up): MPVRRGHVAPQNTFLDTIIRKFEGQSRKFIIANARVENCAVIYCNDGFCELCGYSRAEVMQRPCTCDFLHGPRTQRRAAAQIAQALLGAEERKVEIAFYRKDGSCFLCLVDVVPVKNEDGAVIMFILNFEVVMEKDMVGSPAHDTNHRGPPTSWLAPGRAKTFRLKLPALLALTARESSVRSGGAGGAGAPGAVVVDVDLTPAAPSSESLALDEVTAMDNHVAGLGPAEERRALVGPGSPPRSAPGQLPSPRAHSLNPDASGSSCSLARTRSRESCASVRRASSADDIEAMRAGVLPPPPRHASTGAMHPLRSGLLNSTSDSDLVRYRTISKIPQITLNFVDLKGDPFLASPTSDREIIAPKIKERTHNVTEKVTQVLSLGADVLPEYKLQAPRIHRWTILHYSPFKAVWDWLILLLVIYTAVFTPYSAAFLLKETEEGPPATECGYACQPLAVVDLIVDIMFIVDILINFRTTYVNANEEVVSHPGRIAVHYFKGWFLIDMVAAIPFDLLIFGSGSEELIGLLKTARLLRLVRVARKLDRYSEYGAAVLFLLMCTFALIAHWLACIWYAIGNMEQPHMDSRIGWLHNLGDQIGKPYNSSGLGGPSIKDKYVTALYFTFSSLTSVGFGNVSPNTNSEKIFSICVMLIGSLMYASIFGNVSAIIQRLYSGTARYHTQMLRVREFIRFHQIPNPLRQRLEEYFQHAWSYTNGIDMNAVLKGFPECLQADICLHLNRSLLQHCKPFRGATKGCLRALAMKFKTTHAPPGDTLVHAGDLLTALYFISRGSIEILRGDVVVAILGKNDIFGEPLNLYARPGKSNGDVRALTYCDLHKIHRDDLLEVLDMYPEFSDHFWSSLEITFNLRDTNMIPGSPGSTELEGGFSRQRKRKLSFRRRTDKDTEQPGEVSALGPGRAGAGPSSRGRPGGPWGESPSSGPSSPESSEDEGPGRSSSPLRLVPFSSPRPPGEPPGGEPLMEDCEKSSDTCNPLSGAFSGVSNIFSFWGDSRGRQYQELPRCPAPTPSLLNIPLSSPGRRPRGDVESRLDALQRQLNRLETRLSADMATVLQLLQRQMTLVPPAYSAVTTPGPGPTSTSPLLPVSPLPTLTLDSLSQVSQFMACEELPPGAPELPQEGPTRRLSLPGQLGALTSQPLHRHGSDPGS

Structure (SMILES)	hERG current change (%, negative = inhibition) at 10uM
CCOC(=O)c1c(C)[nH]c(C)c1C(=O)COC(=O)c1nc2nccc(C)n2n1	24.8%
Cc1ccc(NC2CC(=O)N(c3ccc(N4CCCCC4)cc3)C2=O)cc1 (stereo not shown)	21.8%
O=C(c1cc2nc(-c3ccccc3)cc(-c3ccccc3)n2n1)N1CCN(C(=O)c2ccco2)CC1	-56.9%
COc1ccc(SCc2noc(C(=O)NCC3CCCO3)c2C(=O)O)cc1 (stereo not shown)	9.57%
O=C(O)C1CCN(C(=O)COc2ccc3c4c(c(=O)oc3c2)CCC4)CC1	5.34%
CC1CCCC(C)N1/N=C/c1ccc(C#N)cc1 (stereo not shown)	-15.2%
CCc1nnc(NS(=O)(=O)c2ccc(N/C=C\C(=O)c3ccc4ccccc4c3)cc2)s1	5.21%
Cc1cc(C(=O)OCC(=O)N2CC(C)CC(C)C2)c(C)o1 (stereo not shown)	3.26%
CCC(=O)Nc1cccc2cccnc12	16.7%
COc1ccc(-c2ccnc3nc(N4CCN(c5ccccc5)CC4)nn23)cc1	-22.2%
O=C(NNC(=O)c1ccc(=O)[nH]c1)c1ccc(NS(=O)(=O)c2cccs2)cc1	-5.25%
Cc1n[nH]c(=O)nc1N1CCN(c2ccccc2)CC1	3.06%
O=C(CNC(=O)C(c1ccccc1)c1ccccc1)N/N=C\c1ccc(C(=O)O)cc1	15%
O=C(CSc1nc2nn(-c3ccccc3)c(=O)c-2c2n1CCCCC2)NCCCc1ccccc1	-63.1%
CCn1cc(C(=O)N2CCN(C3CCCCC3)CC2)c2cc(OC)c(OC)cc2c1=O	-20.6%
CCN1CCCCC(=N/O)/C(=N/O)CCCC1	25.5%
O=C(O)CCCCCNC(=O)CCn1cnc2ccccc2c1=O	5.02%
COc1ccc(CCNC(=O)CSC2=Nc3ccccc3C3=NC(C(C)C)C(=O)N23)cc1OC (stereo not shown)	14.9%
Cc1nc(Cl)c(C(=O)NC(C)(C)C)c(C)c1Cl	4.1%
COCCN(C)Cc1cn(-c2ccc(F)cc2F)nc1-c1ccccc1C	-24.7%
O=c1[nH]c2ccccc2nc1Cc1ccc([N+](=O)[O-])cc1	-17.6%
O=C(CNC(=O)c1ccccc1F)OCCOc1cccc(Cl)c1	-6.3%

Structure (SMILES)	hERG current change (%, negative = inhibition) at 10uM
COc1ccc(-c2ccnc(-c3ccncc3)n2)cc1	-4.35%
CC(C)OCC(O)CN1CC2C[C@@H](C1)Cn1c2cccc1=O (stereo partly shown)	16.8%
CCc1ccc(NC(=O)C(C)OC(=O)C2CCC(=O)N2)cc1 (stereo not shown)	20.9%
COC(=O)CN1C(=O)Nc2ccc(Br)cc2C1c1ccccc1Cl (stereo not shown)	-7.82%
O=C(c1ccc(Cl)cc1)c1ccccc1C(=O)N1CCOCC1	-1.18%
CCOc1cc(NC(=S)NCCCN2CCOCC2)c(OCC)cc1NC(=O)c1ccco1	-20.8%
COc1ccc(OC)c(NC(=O)COc2coc(CN3CCc4ccccc43)cc2=O)c1	-9.41%
CC(=O)n1cc([C@@H]2C=C(C(=O)NCc3ccccc3)O[C@H](OCc3ccc(CO)cc3)C2)c2ccccc21	-26.6%
COc1ccc(C2(C)NC(=O)N(CC(=O)c3cc(C)n(C4CC4)c3C)C2=O)cc1 (stereo not shown)	-24.6%
Cc1nccn1CC1CCc2c(c3ccccc3n2C)C1=O.Cl (stereo not shown)	-28.4%
COc1ccc(S(=O)(=O)N2CCCCCC2)cc1C(=O)N(C)Cc1ccc(C)cc1	-40.3%
COCCNC(=O)C(c1ccc(Cl)cc1)N(CCOC)C(=O)CCC(=O)Nc1nccs1 (stereo not shown)	-4.36%
CC(Cc1cccs1)NC(=S)Nc1ccc(F)cc1 (stereo not shown)	5.11%
CC(C)CNS(=O)(=O)c1ccc(CCC(=O)NCCc2ccccc2)cc1	-3.94%
CC(C)(CO)NS(=O)(=O)c1ccc2c(c1)Cc1cc(S(=O)(=O)NC(C)(C)CO)ccc1-2	12.8%
CC(NC(=O)c1ccc(CS(C)(=O)=O)cc1)c1ccc(-n2ccnc2)cc1 (stereo not shown)	-1.32%
O=C(Cc1cccs1)NCCN1CCOCC1	3.99%
O=C(Nc1ccccc1)Nc1cccc(-c2nnco2)c1	12.9%
Nc1cc(N)nc(SCC(=O)Nc2ccccc2)n1	3.53%
CCOP(=O)(OCC)C(NC(=O)c1cccc([N+](=O)[O-])c1)C(Cl)(Cl)Cl (stereo not shown)	12.2%
Cc1cccc(-n2ncc3c(NCCCO)ncnc32)c1	3.14%
Cc1ccccc1-n1c(C)c(C#N)c(=O)c(-[n+]2ccccc2)c1[S-]	23.4%

Structure (SMILES)	hERG current change (%, negative = inhibition) at 10uM
O=C(OCc1ccccc1)/C(=C/c1cccc(Br)c1)NC(=O)c1ccco1	-52.5%
CCOC(=O)c1[nH]c2cc(OC)c(OC)cc2c1N	3.6%
CCOCCCNC(=O)CN1C(=O)c2ccccc2Sc2ncccc21	6.05%
Cc1cccc(N=C(N2CCOCC2)P(=O)(N2CCOCC2)N2CCOCC2)c1	7.67%
CCN1CCC(N2CCN(c3ccccc3OC)CC2)CC1	11.7%
O=C(Nc1cc([N+](=O)[O-])ccc1F)C1CC1	-4.7%
COc1ccc(NC(=S)N2CCN(C(c3ccccc3)c3ccccc3)CC2)cc1OC	0.949%
CN(C)S(=O)(=O)c1cccc(C(=O)NCCNC(=O)c2cccc(S(=O)(=O)N(C)C)c2)c1	15.9%
COc1ccc(/C=N/NC(=O)C(=O)Nc2ccccn2)cc1OC	-27.2%
CCn1c(COc2cccc3cccnc23)nnc1SCC(=O)O	7.93%
COC(=O)C1=C(C)N2C(=O)CSC2=NC1c1ccc2c(c1)OCO2 (stereo not shown)	-7.09%
CCOC(=O)c1[nH]c2ccc(Br)cc2c1NC(=O)CCN1CCCC(C)C1 (stereo not shown)	-73.1%
Cn1c(N)c(C(=O)COC(=O)CCC(=O)c2cccs2)c(=O)n(C)c1=O	-13.7%
CC(C)c1nnc(NC(=O)C2CCCN2C(=O)Nc2cccc(Cl)c2)s1 (stereo not shown)	-18%
CCOc1ccc(/C=C2\SC(=S)N(CCC(=O)Nc3ccccc3C(=O)O)C2=O)cc1	15.4%
O=C(Cc1c(Cl)cccc1Cl)OCC(=O)N1CCc2ccccc2C1	-13.7%
CCc1nn2c(=O)cc(COc3ccc(NC(=O)c4ccco4)cc3)nc2s1	-6.11%
Cc1ccccc1C(=O)N=c1sccn1C	24.7%
CC(=O)Nc1ccc(S(=O)(=O)Nc2cc(C)ccn2)cc1	11.5%
Cc1cc(C(=O)NC2CCCN(Cc3ccc(Cl)cc3)C2)n(C)n1 (stereo not shown)	-16%
Nn1c(SCc2ccccc2)nc2c(cnn2-c2ccccc2)c1=O	-3.57%
N#CC1(c2ccccc2)CCCN1C(=O)c1ccco1 (stereo not shown)	-12%

Structure (SMILES)	hERG current change (%, negative = inhibition) at 10uM
CC(C)(C)OC(=O)N1CCC[C@@H]1CO	-8%
Cc1ccc(-n2nc3c(c2NC(=O)c2cccs2)CSC3)cc1	7.81%
CS(=O)(=O)c1ccc(-c2nnn(CC(=O)N3CCCCC3)n2)cc1	21.1%
Cc1ccc2c(c1)C1CN(C)CCC1N2C(=O)c1ccco1 (stereo not shown)	-7.26%
Cc1ccc(/C=N/NC(=O)Cn2cncn2)cc1	24.4%
COc1ccc(C2=Nn3c(nnc3-c3ccccc3)SC2)cc1OC	7.08%
CC(=O)Nc1ccc(N2C(C(C)=O)=NN(c3ccc(Cl)cc3)C2c2sccc2C)cc1 (stereo not shown)	4.29%
Cc1ccc(CCC(=O)Nc2ccc([N+](=O)[O-])cc2)o1	0.967%
COc1cc(C#Cc2c(-c3cncn3C)n(C)c3ccc(-c4ccc(OC)c(OC)c4)cc23)cc(OC)c1	-1.2%
CN(C(=O)c1cnc2n(c1=O)CCS2)C1CCCCC1	24.6%
CCOC(=O)C1CCCN(c2c(NCC3CCCO3)c(=O)c2=O)C1 (stereo not shown)	9.66%
CCCC(C)n1[nH]c(=O)c2c1NC(=O)CSC2c1ccc(OC)c(OC)c1 (stereo not shown)	15.4%
CCOC(=O)CNC(=O)CN1C(=O)CCS(=O)(=O)c2ccccc21	12.3%
CCCC(NC(=O)Cc1c(C)c2cc3c(C)c(C)oc3c(C)c2oc1=O)C(=O)N[C@@H](Cc1ccccc1)C(=O)O (stereo partly shown)	-1.16%
O=C(CSc1n[nH]c(-c2ccccc2)n1)c1ccccc1	7.43%
Cc1nc([N+](=O)[O-])c(C(=O)OCc2ccccc2)n1C	19%
CCn1c(=O)cc(OCC(=O)Nc2ccccc2N2CCN(C)CC2)c2ccccc21	-58.3%
Nn1cc(-c2ccccc2)nc1SCC(=O)NCCc1ccccc1	6.04%
CCCCc1cc(=O)oc2cc(C)cc(OCC(=O)NCc3ccccn3)c12	-56.4%
CC1=NN(c2ccccc2)C(=O)/C1=C\c1sccc1C	-9.78%
O=C(COc1ccc2c(c1)C(=O)CC1(CCCCC1)O2)NCc1ccccc1	0.962%
CCOC(=O)N1CCC(N2Cc3cccc(C(=O)NCc4ccccc4OC)c3C2=O)CC1	-71.2%
